Sequences with one replicate were seen in a single cluster, so their values are uncertain.
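Further: ATP exposure 15 min at 22 °C before imaging.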

The series concerns ATP. The series can be described thus: switch fluorescence ratio, 500 uM ATP over buffer (Cy3 cluster intensity, sum of 5 cycles each) (fold (ratio)); higher = stronger signal-on switching upon ATP binding; sequences stand for … in TCGTCGGCAGCGTCAGATGTGTATAAGAGACAGTTTTTTTTTTTTTTTTTTTTTTTTT…TC. Conditions: aptamer strand: ATP DNA aptamer (quencher-CACCTGGGGGAGTATTGCGGAGGAAGG + anchor), 100 nM annealed; ATP concentration: 500 uM; one replicate. Put shortly:
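Clusters carrying Cy3-labelled switching strands on a modified Illumina MiSeq flow-cell were annealed to 100 nM quencher-labelled ATP aptamer and imaged in selection buffer. They were imaged again after 15 min with 500 uM ATP at 22 °C, over five buffer/ATP cycles with NaOH stripping and re-annealing in between. For each cluster, the fluorescence ratio is the summed Cy3 intensity of the target cycles divided by that of the buffer cycles, averaged per switch-domain sequence. Clusters outside 100-1000 RFU were left out.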
Take TGTATATACA: the switch fluorescence ratio is 1.05.
In the case of AATAGCTCAT it was 1.02; in that of CCGAGGGTTC, 1.66; in that of GTCGGAAATC, 0.981.
In the case of AGACAAGATC it was 1.01.
With AGGTCTAGCG, the switch fluorescence ratio came out at 0.999.
As to TACGTCCCCA, the switch fluorescence ratio amounted to 1.13.
With GATTCCTACA, the switch fluorescence ratio was determined as 1.06.
CGATGACCA: the switch fluorescence ratio is 0.985.
On to ATACTAACTA, for which the switch fluorescence ratio was determined as 1.08.
As to ATTATGCTA, the switch fluorescence ratio was 1.02.
For the sequence GTTATAGCGC, the switch fluorescence ratio is 0.945.
With TGATTTTTCC, the switch fluorescence ratio is 1.1.
As for GGAAATTGCC, the switch fluorescence ratio stood at 0.966.
In the case of ACTACGAAAC it was 2.14; in that of ATCATGGAAC, 1; in that of ACGGTTGGTA, 1.02.
With CTGCTTAAA, the switch fluorescence ratio stood at 0.984.
As to ACCGGCAGTG, the switch fluorescence ratio amounted to 1.02.
As for TTTATGTTAC, the switch fluorescence ratio turned out to be 1.08.
For the sequence AGGTGTCATC, the switch fluorescence ratio amounted to 1.01.
Consider TAGGTAGACT, for which the switch fluorescence ratio stood at 0.92.
For TAAGAAGTCA, the switch fluorescence ratio was determined as 1.03.
In the case of ATCCATGGGA it was 0.997.
As to TTAATGACGT, the switch fluorescence ratio stood at 1.03.
With GCCCTGCACC, the switch fluorescence ratio stood at 1.05.
In the case of GCTGGATTC, the switch fluorescence ratio was 1.01.
Regarding CGCGCCCTTT, the switch fluorescence ratio worked out at 1.07.
As for CATAGGAC, the switch fluorescence ratio turned out to be 0.985.
In the case of ATCCTGAATC it was 1.05; in that of GAAACGTATG, 0.987.
For AATTGTGCTC, the switch fluorescence ratio stood at 1.04.
Consider GAATTACATC, for which the switch fluorescence ratio turned out to be 1.03.
As for GATATCGGGC, the switch fluorescence ratio is 1.02.
With GAGAGGCAGA, the switch fluorescence ratio was 1.01.
Regarding TCTCTAAAGC, the switch fluorescence ratio came to 1.24.
On to ATAAAGCTAT, for which the switch fluorescence ratio was 1.01.
Take ATGTGTATTA: the switch fluorescence ratio was determined as 1.04.
For CTTTTGTGGC, the switch fluorescence ratio was found to be 1.05.
In the case of ACCACTGCAG, the switch fluorescence ratio is 1.02.
For the sequence TACGCTAGGG, the switch fluorescence ratio is 1.05.
With GCGGAACATA, the switch fluorescence ratio was determined as 0.975.
For AGATTACTGG, the switch fluorescence ratio turned out to be 1.03.
For AAGTTGCTTA, the switch fluorescence ratio is 1.01.
Consider ACTGCCCCCA, for which the switch fluorescence ratio came out at 1.53.
In the case of CCGGTATCAC it was 1.79; in that of AACCGCTACG, 1.25.
As to CTCGCTCGCT, the switch fluorescence ratio amounted to 1.08.
As to GACTCCGGTA, the switch fluorescence ratio was 3.98.
With CGAGCGTGGT, the switch fluorescence ratio turned out to be 0.979.
Consider ATCCGAATAG, for which the switch fluorescence ratio amounted to 3.86.
On to CCTTAATTTC, for which the switch fluorescence ratio is 1.04.
As to ACTGGCTTTC, the switch fluorescence ratio came out at 1.04.
In the case of CAGAAACGCA, the switch fluorescence ratio turned out to be 1.05.
As to TTTATCCCTG, the switch fluorescence ratio amounted to 1.
As for TCCCTTATAG, the switch fluorescence ratio was found to be 1.03.
As for TTCGAAATCA, the switch fluorescence ratio was determined as 1.15.
In the case of CAACGTAAAG it was 1.05; in that of CAGCGCTAGG, 1.03.
In the case of CACGAGGGCG it was 0.979; in that of GAGGAACGCA, 1.14; in that of GGTTTAGCGT, 0.972.
As for CGTTTATAC, the switch fluorescence ratio amounted to 2.44.
In the case of CGGCCGGGTG it was 1.02; in that of ACCTTAATG, 1.02; in that of GGCGGGTTGC, 0.989.
With CTCACTAGCT, the switch fluorescence ratio stood at 1.06.
As for TCAGTGGAGC, the switch fluorescence ratio is 1.03.
With TTGAAAAGCG, the switch fluorescence ratio came to 1.
Consider TTGGTACTCC, for which the switch fluorescence ratio is 1.07.
As for CGTATGACGT, the switch fluorescence ratio was determined as 1.03.
With TGGGGTTGG, the switch fluorescence ratio came out at 0.995.
In the case of CAGCTGTGCG, the switch fluorescence ratio came out at 1.06.
Take TTGTGCTTCT: the switch fluorescence ratio came to 0.988.
Consider CATTTTTCTT, for which the switch fluorescence ratio stood at 0.997.
Regarding AAGACTGATG, the switch fluorescence ratio came to 0.978.
In the case of CTATGACACG, the switch fluorescence ratio was 0.997.
In the case of TAACACTACG it was 1.46; in that of GGATCAAGTT, 0.969.
Regarding ATGGTAAGC, the switch fluorescence ratio was 0.975.
For the sequence ACGGGAAGCT, the switch fluorescence ratio came to 0.99.
Turning to GCAGTTAATG, the switch fluorescence ratio was determined as 0.985.
For the sequence CCGTGGCGCG, the switch fluorescence ratio stood at 1.01.
Take GCAATAGAGG: the switch fluorescence ratio turned out to be 1.15.
In the case of ACATGCGTTA it was 1; in that of TGAAACCTAA, 1.12; in that of ATGTGTGGTC, 0.978.
TAATGCTGCT: the switch fluorescence ratio turned out to be 1.04.
Turning to TATTCTACGT, the switch fluorescence ratio turned out to be 1.05.
In the case of GAATTTCCGA it was 1.05; in that of AAAACGCAGA, 1.13.
Regarding AAGTTGCGTA, the switch fluorescence ratio was found to be 1.03.
As to GCTGACTATG, the switch fluorescence ratio came to 1.
In the case of AATTAGAGGA it was 0.968; in that of ACTGGAAGGA, 1.03.
With ATTATCAGAC, the switch fluorescence ratio stood at 1.01.
Regarding ACGTATGTTC, the switch fluorescence ratio was 0.998.
Turning to GGTAGAAGAG, the switch fluorescence ratio turned out to be 0.972.
CAACATAGCT: the switch fluorescence ratio came to 1.06.
In the case of TACGATGGGC it was 1.05; in that of TACCTGATCG, 1.12.
In the case of TTGATACCTG it was 1.04.
As for ATCGGGTGAG, the switch fluorescence ratio is 1.03.
As for GTCACGATAC, the switch fluorescence ratio stood at 1.93.
On to ATTTGGCGGC, for which the switch fluorescence ratio amounted to 1.02.
In the case of GATCGGGA it was 0.994.
As for AAGATTCTGG, the switch fluorescence ratio is 0.995.
In the case of TCTTGCTATC it was 1.28; in that of GGGATTGTCA, 1.01; in that of AACTTGACGC, 1.14.
Turning to GACCTAGGGC, the switch fluorescence ratio is 0.998.
ACTCACTGCG: the switch fluorescence ratio was determined as 1.13.
On to TTAGTTCCTA, for which the switch fluorescence ratio amounted to 1.02.
In the case of GCCCTCCGTA, the switch fluorescence ratio came to 1.95.
In the case of AAAAATGCTC it was 0.897; in that of ACACCTGGGG, 1.08.
With AGGGGAGTAC, the switch fluorescence ratio came out at 0.947.
On to GCCTCGGTGC, for which the switch fluorescence ratio is 1.03.
Take TCAGGTGGT: the switch fluorescence ratio was 1.1.
As for CAGCCATGCC, the switch fluorescence ratio came to 1.01.

The values above are taken from the supplement of paper PMC10126150.
